Laboratory results as given in US20220235111A1, “Variant Single-Chain Insulin Analogues” (CASE WESTERN RESERVE UNIVERSITY, priority 2019, published 2022).
Not every detail of the peptide structures is certain; ends, links or a residue may be inferred. Marks after values point to notes of the source that are not given here. Some entries repeat one wording, which the source may state once for all of them. Bridge positions count the residues as written; N and C are the ends. Ends that are not written are not given here.

Columns and labels:
[1] = CD-monitored guanidine chemical denaturation (thermodynamic stability); type: physicochemical; conditions: 25° C., pH 7.4; for Cmid (guanidine denaturant concentration at which 50% of the protein is unfolded) / m-value: guanidine titration; for ΔGCD: two-state transition fits of guanidine titration
[2] = tested on: GSK-3 (alpha and beta forms) in MCF-7 cells; experiment: Western blot of phospho glycogen synthase kinase in MCF-7 cells; type: cell-based, human; conditions: 50 nM analogue, compared among analogues
[3] = tested on: Insulin Receptor (IR) and Akt in MCF-7 human breast cancer cells; experiment: Western blot of IR activation and Akt stimulation in MCF-7 cells; type: cell-based; conditions: 50 nM analogue, relative to lispro insulin & 3403
FoxO in MCF-7 cells = experiment: Western blot of FoxO phosphorylation in MCF-7 cells; type: cell-based, human; conditions: 50 nM analogue, compared to KP insulin and 3403
[4] = 1H-NMR amide proton exchange (thermodynamic stability); type: physicochemical
[5] = tested on: male Sprague-Dawley rats rendered diabetic by streptozotocin; experiment: Blood glucose pharmacodynamics in diabetic rats; type: in vivo; conditions: 2.6 nmol/300 g rat, injection
[6] = tested on: male Sprague-Dawley rats rendered diabetic by streptozotocin; conditions: rat model of diabetes mellitus, as described in Glidden et al. (2018a); cited from earlier work
[7] = pH 7.4 amide exchange, fitting the B18 global amide resonance

| Sequence | Cmid (guanidine denaturant concentration at which 50% of the protein is unfolded) [1] [M] | m-value [1] | ΔGCD [1] [kcal/mol] | also measured |
| --- | --- | --- | --- | --- |
| FVNQHLCGSHLVEALYLVCGERGFFYTDPTEEGPRRGIVEQCCHSICSLVQLENYCN (disulfide 7-43, 19-56, 42-47) [V] | 5.1 ± 0.1 | 0.77 ± 0.01 | 3.9 ± 0.1 |  |
| FVNQHLCGSHLVEALYLVCGERGFFYTDPTEEGAAPRRGIVEQCCHSICSLEQLENYCN (disulfide 7-45, 19-58, 44-49) [Analog 3402] |  |  |  | Phospho glycogen synthase kinase (GSK-3, alpha and beta forms) level [2]: substantially identical; activation of IR and subsequent stimulation of Akt [3]: lower; levels of FoxO phosphorylation (FoxO in MCF-7 cells): noticeably lower levels |
| FVNQHLCGSHLVEALYLVCGERGFFYTDPTEEGPRRGIVEQCCHSICSLSQLENYCN (disulfide 7-43, 19-56, 42-47) [S] | 5.5 ± 0.1 | 0.82 ± 0.02 | 4.5 ± 0.1 |  |
| FVNQHLCGSHLVEALYLVCGERGFFYTDPTEEGPRRGIVEQCCHSICSLQQLENYCN (disulfide 7-43, 19-56, 42-47) [Q] | 5.6 ± 0.1 | 0.83 ± 0.01 | 4.6 ± 0.1 |  |
| FVNQHLCGSHLVEALYLVCGERGFFYTDPTEEGPRRGIVEQCCHSICSLNQLENYCN (disulfide 7-43, 19-56, 42-47) [N] | 5.4 ± 0.1 | 0.79 ± 0.02 | 4.2 ± 0.1 | ΔGNMR [4, 7]: 4.20 ± 0.06 kcal/mol |
| FVNQHLCGSHLVEALYLVCGERGFFYTDPTEEGPRRGIVEQCCHSICSLYQLENYCN (disulfide 7-43, 19-56, 42-47) [Y] | 5.3 ± 0.1 | 0.74 ± 0.02 | 3.9 ± 0.1 | ΔGNMR ([4]; amide exchange at pH 2.8, fitting the B18 global amide resonance): 3.98 ± 0.05^d kcal/mol |
| FVNQHLCGSHLVEALYLVCGERGFFYTDPTEEGPRRGIVEQCCHSICSLFQLENYCN (disulfide 7-43, 19-56, 42-47) [F] | 5.2 ± 0.1 | 0.81 ± 0.02 | 4.2 ± 0.1 |  |
| FVNQHLCGSHLVEALYLVCGERGFFYTDPTEEGPRRGIVEQCCHSICSLGQLENYCN (disulfide 7-43, 19-56, 42-47) [G] | 5.0 ± 0.1 | 0.83 ± 0.01 | 4.2 ± 0.1 | ΔGNMR [4, 7]: 4.20 ± 0.10 kcal/mol |
| FVNQHLCGSHLVEALYLVCGERGFFYTDPTEEGPRRGIVEQCCHSICSLEQLENYCN (disulfide 7-43, 19-56, 42-47) [E] | 5.7 ± 0.1 | 0.82 ± 0.01 | 4.7 ± 0.1 | ΔGNMR [4, 7]: 4.67 ± 0.01 kcal/mol |
| FVNQHLCGSHLVEALYLVCGERGFFYTDPTEEGPRRGIVEQCCHSICSLAQLENYCN (disulfide 7-43, 19-56, 42-47) [A] | 5.8 ± 0.1 | 0.79 ± 0.02 | 4.6 ± 0.1 |  |
| FVNQHLCGSHLVEALYLVCGERGFFYTDPTEEGPRRGIVEQCCHSICSLDQLENYCN (disulfide 7-43, 19-56, 42-47) [D] | 5.4 ± 0.1 | 0.81 ± 0.01 | 4.4 ± 0.1 |  |
| FVNQHLCGSHLVEALYLVCGERGFFYTDPTEEGAAAPRRGIVEQCCHSICSLEQLENYCN (disulfide 7-46, 19-59, 45-50) [Analog 3403] |  |  |  | Phospho glycogen synthase kinase (GSK-3, alpha and beta forms) level [2]: substantially identical |
| FVNQHLCGSHLVEALYLVCGERGFFYTDPTEEGPRRGIVEQCCHSICSLEQLENYCN (disulfide 7-43, 19-56, 42-47) [Analog 3303] |  |  |  | pharmacodynamic (PD) profile / tail of insulin action (blood glucose over time) [5]: biphasic; Phospho glycogen synthase kinase (GSK-3, alpha and beta forms) level [2]: substantially identical; activation of IR and subsequent stimulation of Akt [3]: lower; levels of FoxO phosphorylation (FoxO in MCF-7 cells): noticeably lower levels; PD profile [6]: biphasic |
| FVNQHLCGSHLVEALYLVCGERGFFYTDPTEAAAAAGIVEQCCHSICSLEQLENYCN (disulfide 7-43, 19-56, 42-47) [EAAAAA] |  |  |  | pharmacodynamic (PD) profile / tail of insulin action (blood glucose over time) [5]: essentially “tail-less.” |
| FVNQHLCGSHLVEALYLVCGERGFFYTDPTEEGPRRGIVEQCCHSICSLRQLENYCN (disulfide 7-43, 19-56, 42-47) [R] | 5.7 ± 0.1 | 0.79 ± 0.01 | 4.5 ± 0.1 |  |
| FVNQHLCGSHLVEALYLVCGERGFFYTDPTEEGPRRGIVEQCCHSICSLWQLENYCN (disulfide 7-43, 19-56, 42-47) [W] | 5.5 ± 0.1 | 0.76 ± 0.02 | 4.2 ± 0.1 |  |
| FVNQHLCGSHLVEALYLVCGERGFFYTDPTEEGAPRRGIVEQCCHSICSLEQLENYCN (disulfide 7-44, 19-57, 43-48) [Analog 3401] |  |  |  | Phospho glycogen synthase kinase (GSK-3, alpha and beta forms) level [2]: substantially identical; activation of IR and subsequent stimulation of Akt [3]: lower; levels of FoxO phosphorylation (FoxO in MCF-7 cells): noticeably lower levels |
